# Measured values reported in PubChem BioAssay AID651820 (National Center for Advancing Translational Sciences (NCATS), 2012).
# Out of some 340,000 compounds screened, about 12,000 (3.5%) were called active. The inconclusive results got no clear call from the source; some entries with a clear call stand among them for comparison. The call rests on the fitted dose curve; in most records, active means well fitted inhibition curve with a large enough effect; inconclusive means small, poorly fitted or top-dose-only effect, or another doubt; inactive means no such curve, though single readings can be large or run the other way. No potency is given beside an inconclusive call; the fits are too rough.
# Assay: qHTS Assay for Inhibitors of Hepatitis C Virus (HCV)
# Details: Huh7.5.1 HCVcc-Cre (HCVcc is cell-culture hepatitis C virus) infection, luciferase reporter, 44 h; activity change, negative = inhibition: at 41.8 µM (top of the series)
# How it was run: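 Antiviral activity was scored by luciferase reporter output from cells infected with HCVcc-Cre (~0.5 moi) in presence of compound, 44 h infection period, cells seeded 1,000/well 4 h prior.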
# On the % scale 0 is the no-effect control and ±100 the full control effect; potency means the concentration at half of the fitted maximal effect; tags describe the fitted curve by direction and shape.
SMILES,Potency,"activity change, negative = inhibition"
O=C(Nc1ccc(Cl)c(S(=O)(=O)N2CCOCC2)c1)c1ccc2c(c1)OCO2,active: 10 µM,–
CCC(=O)Nc1nc2ccc(NC(C)=O)cc2s1,–,inactive: 12.6%
COc1ccc(-c2ccc(=O)n(CC(=O)Nc3ccc4c(c3)OCCO4)n2)cc1,–,inactive: -4.51%
Cc1ccc(C(=O)Nc2cccc(-c3ccc(N4CCOCC4)nn3)c2)cc1C,"inconclusive [inhibitor, single point]",–
O=C(Nc1cc2c(cc1Cl)OCCCO2)c1ccco1,"inconclusive [inhibitor, single point]",–
CC1Cc2cc(/C(O)=C3/C(=O)C(=O)N(CC4CCCO4)C3c3ccco3)ccc2O1 (configuration not stated),–,inactive: 6.23%
COc1ccc(S(=O)(=O)n2ccc(C(C)Oc3ccc(-c4ccccc4)c(F)c3)n2)cc1 (configuration not stated),"inconclusive [inhibitor, single point]",–
Cc1ccc(NC(=O)/C=C/c2cccc(C(F)(F)F)c2)cc1,"inconclusive [inhibitor, partial curve]",–
O=C(C1CCN(S(=O)(=O)c2cccc3cccnc23)CC1)N1CCN(c2ccccn2)CC1,–,inactive: 12%
CCc1cc(C(=O)NCC(c2cccs2)N2CCOCC2)sc1C (configuration not stated),"inconclusive [inhibitor, single point]",–
COc1ccc(S(=O)(=O)N2CCC(C(=O)N[C@H](C(=O)NC3CCCC3)C(C)C)CC2)cc1,–,inactive: 13.3%
O=C(COc1cc2oc(=O)cc(-c3ccccc3)c2cc1Cl)NCc1ccccn1,"inconclusive [inhibitor, single point]",–
Nc1ncnc(NC2CCS(=O)(=O)C2)c1[N+](=O)[O-] (configuration not stated),–,inactive: -3.06%
CCc1nc(SCC(=O)Nc2cc(C)on2)c2c(=O)n(C)c(=O)n(C)c2n1,"inconclusive [inhibitor, single point]",–
N#CCn1c2ccccc2c2nc3ccccc3nc21,"inconclusive [inhibitor, single point]",–
CC(=O)N(C)c1ccc(NC(=O)c2cnn(C)c2)cc1,"inconclusive [inhibitor, single point]",–
CCOc1ccc(NS(=O)(=O)c2ccc(C(=O)NCC3(N4CCCCC4)CCCCC3)cc2)cc1,"inconclusive [inhibitor, single point]",–
CC1CCc2sc3nc(N4CCN(CCO)CC4)n4ncnc4c3c2C1 (configuration not stated),active: 20 µM,–
C=CCN(c1ccccc1OC)S(=O)(=O)c1cccc(C(=O)OCC(=O)c2c(N)n(C)c(=O)n(C)c2=O)c1,"inconclusive [inhibitor, single point]",–
CCN1C(=O)N(S(=O)(=O)c2ccc(C)cc2)[C@@H](c2ccccc2)C(C(=O)OC)=C1C,"inconclusive [inhibitor, partial curve]",–
N#CC(C#N)=Cc1cc2ccccc2nc1N1CCCCC1,"inconclusive [inhibitor, single point]",–
COc1ccccc1Nc1cc(C)nc2c(C)ccc([N+](=O)[O-])c12,"inconclusive [inhibitor, single point]",–
CCNS(=O)(=O)c1ccc(CCC(=O)Nc2ccc3c(c2)OCO3)cc1,–,inactive: -24.4%
CN(C)CCOC(=O)c1ccc2[nH]c3c(c2c1)CSCC3,"inconclusive [inhibitor, single point]",–

SMILES,Potency,"activity change, negative = inhibition"
C=CCNc1nc(Cl)nc(Nc2ccc(OC)cc2)n1,–,inactive: -3.92%
Cc1nn(C(C)C(=O)NCc2ccccc2Cl)c(=O)c2c1sc1ccccc12 (configuration not stated),"inconclusive [inhibitor, single point]",–
Cc1ccc(NC(=O)CN2C(=S)NC(C)(C)CC2C)cc1Cl (configuration not stated),"inconclusive [inhibitor, partial curve, poor fit]",–
COc1cc2nc(N3CCN(C(=O)C4COc5ccccc5O4)CC3)nc(N)c2cc1OC (configuration not stated),"inconclusive [inhibitor, single point]",–
CC(C)n1c(NCc2cc(Cl)ccc2O)nc2ccccc21,"inconclusive [inhibitor, partial curve]",–
O=C(Nc1ccc(-n2cnnn2)cc1)c1cccc(S(=O)(=O)N2CCCC2)c1,"inconclusive [inhibitor, single point]",–
COc1ccc(C2=NS(=O)(=O)N(C)C(C(=O)Nc3ccc4c(c3)OCO4)=C2)cc1OC,active: 12.6 µM,–
O=C1CC2(CCN(C(=O)COc3ccc(F)cc3)CC2)Oc2ccccc21,"inconclusive [inhibitor, single point]",–
Cc1cc(CNC(=O)c2ccc3c(c2)OCO3)c2ccccc2n1,"inconclusive [inhibitor, partial curve]",–
CCNC(=S)N/N=C/c1ccc(OCC(=O)Nc2ccc(C)cc2)cc1,"inconclusive [inhibitor, full curve]",–
Cc1noc(C(=O)Nc2ccc(C#N)cc2)c1Cl,–,inactive: -8.5%
CC(c1ccc(F)cc1)n1c(-c2cccs2)n[nH]c1=S (configuration not stated),–,inactive: 4.88%
COc1ccc(/C(N)=N/OC(=O)CSc2ccccc2)cc1OC,"inconclusive [inhibitor, full curve]",–
O=C(NCc1nc2ccccc2[nH]1)C1=C[C@@H](C2CCCCC2)C[C@@H](OCc2ccc(CO)cc2)O1,"inconclusive [inhibitor, single point]",–
Cc1ccc([N+](=O)[O-])cc1N/C=C/C(=O)c1ccco1,active: 6.31 µM,–
CCn1c(C)c(C)c2cc(C(=O)NC3CCCCCC3)ccc21,"inconclusive [inhibitor, single point]",–
CC(=O)Nc1cccc(-c2nnc(-c3ccccc3)o2)c1,–,inactive: 5.68%
CCC(C)C(Nc1ccc(C(=O)OC)cc1[N+](=O)[O-])C(=O)OC (configuration not stated),"inconclusive [inhibitor, single point]",–
COC(=O)c1cc(NC(=S)Nc2cc(Cl)cc(Cl)c2)cc(C(=O)OC)c1,"inconclusive [inhibitor, single point]",–
CCOc1ccccc1CNC(=O)c1cc2oc3ccccc3c2n1CC,"inconclusive [inhibitor, single point]",–
COc1ccc(NC(=O)C2CCCN(S(=O)(=O)c3cccnc3)C2)c(OC)c1 (configuration not stated),"inconclusive [inhibitor, partial curve]",–
CCOC(=O)c1cccc(NC(=O)c2cccnc2)c1,–,inactive: -1.39%
CCCCOC(=O)C1CCCC(C)N1 (configuration not stated),–,inactive: 8.68%
O=C(Cn1cnc2sc3c(c2c1=O)CCCC3)NCC(=O)Nc1c(F)cc(F)cc1Br,"inconclusive [inhibitor, single point]",–

SMILES,Potency,"activity change, negative = inhibition"
CC(=NNC(=S)N(Cc1ccccn1)Cc1ccccn1)c1cnccn1,"inconclusive [inhibitor, full curve]",–
Cc1ccsc1/C=N/N=C1\C(=O)Nc2ccccc21,–,inactive: 32%
Cc1ccc(Nc2nc(-c3ccc(F)cc3)cs2)nc1,–,inactive: -16.3%
Cc1ccc(-c2csc(NC(=O)CSc3nnc4c(n3)[nH]c3ccccc34)n2)cc1,–,inactive: -26.8%
CCN(CC(=O)Nc1ccccc1C(F)(F)F)C(=O)C1CC(=O)N(Cc2ccccc2)C1 (configuration not stated),–,inactive: 1.21%
COc1cc(CN2CCNC(=O)C2CC(=O)N(C)CCN2CCOCC2)cc(OC)c1 (configuration not stated),–,inactive: 14.6%
CCC(=O)N(Cc1cccs1)C1CCOC(C)(C)C1 (configuration not stated),–,inactive: 22.9%
Cc1ccn2c(-c3csc(NCc4ccccc4)n3)c(C)nc2c1,active: 10 µM,–
C[C@@H]1O[C@@H](OC2C(O)C(OCCc3ccc(O)c(O)c3)OC(CO)C2OC(=O)/C=C/c2ccc(O)c(O)c2)[C@H](O)[C@H](O)[C@H]1O (some centres not stated),"inconclusive [inhibitor, single point]",–
CC(CCc1ccco1)NC(=O)c1cc2c(-c3ccccc3F)nn(C)c2s1 (configuration not stated),active: 17.8 µM,–
CCC12CN(S(=O)(=O)c3ccc(C)cc3)CC(CC)(CN(S(=O)(=O)c3ccc(C)cc3)C1)C2=O,–,inactive: -11.7%
CCOc1ccccc1N1CCN(S(=O)(=O)c2ccc3c4c(cccc24)C(=O)N3)CC1,"inconclusive [inhibitor, single point]",–
CC(=O)c1c(C)[nH]c(C(=O)CSc2nc3ccccc3n2C)c1C,"inconclusive [inhibitor, partial curve]",–
N#CC1=C(N)NC(SCc2ccccc2)=C(C#N)C12CCCCC2,"inconclusive [inhibitor, partial curve]",–
Cc1cc(C)c(C#N)c(SCc2c(F)cccc2[N+](=O)[O-])n1,"inconclusive [inhibitor, single point]",–
Cc1cc(/C=C2\SC(=S)N(C)C2=O)c(C)n1-c1cccc(O)c1,active: 4.47 µM,–
CCOc1cc(-c2nc(-c3ccc(C)nc3OC)no2)cc(OCC)c1OCC,"inconclusive [inhibitor, partial curve]",–
CN1CCN(CCNC(=O)c2ccc3nc(-c4ccc(F)cc4)c(-c4ccc(F)cc4)nc3c2)CC1,active: 2.24 µM,–
O=c1c(O)c(-c2ccc(O)cc2)oc2cc(O)cc(O)c12,active: 6.31 µM,–
CC(=O)N(Cc1ccccc1)C1CC(=O)N(Cc2ccccc2)C1=O (configuration not stated),–,inactive: 3.73%
Cc1nn(CC(=O)NCCc2ccc(Cl)cc2Cl)c(C)c1[N+](=O)[O-],"inconclusive [inhibitor, single point]",–
COC(=O)c1cc(S(=O)(=O)N(C)C2CCCCC2)c[nH]1,–,inactive: -0.413%
NC(=O)c1ccc(Oc2ccc(-c3nnco3)cc2)c([N+](=O)[O-])c1,"inconclusive [inhibitor, single point]",–
Cc1cccc(-n2c(SCC(N)=O)nnc2-c2ccco2)c1,–,inactive: 16.3%
